In PMC5517149:
No constants are given. Whether binding was seen depends on the method and setting. In cells and extracts the contact can be indirect. Some entries that bind do so weakly or less than the wild type. For part of these data: Sequences can lack the tags named with a protein.

By UniProt entry, the sequences of proteins in these tests, tags left out. Where a name states a change or a piece, a line headed by the entry shows the natural chain unless it says otherwise. Chains listed by the source or under a name are the forms on record and can include a tag or linker.
UniProt Q16799: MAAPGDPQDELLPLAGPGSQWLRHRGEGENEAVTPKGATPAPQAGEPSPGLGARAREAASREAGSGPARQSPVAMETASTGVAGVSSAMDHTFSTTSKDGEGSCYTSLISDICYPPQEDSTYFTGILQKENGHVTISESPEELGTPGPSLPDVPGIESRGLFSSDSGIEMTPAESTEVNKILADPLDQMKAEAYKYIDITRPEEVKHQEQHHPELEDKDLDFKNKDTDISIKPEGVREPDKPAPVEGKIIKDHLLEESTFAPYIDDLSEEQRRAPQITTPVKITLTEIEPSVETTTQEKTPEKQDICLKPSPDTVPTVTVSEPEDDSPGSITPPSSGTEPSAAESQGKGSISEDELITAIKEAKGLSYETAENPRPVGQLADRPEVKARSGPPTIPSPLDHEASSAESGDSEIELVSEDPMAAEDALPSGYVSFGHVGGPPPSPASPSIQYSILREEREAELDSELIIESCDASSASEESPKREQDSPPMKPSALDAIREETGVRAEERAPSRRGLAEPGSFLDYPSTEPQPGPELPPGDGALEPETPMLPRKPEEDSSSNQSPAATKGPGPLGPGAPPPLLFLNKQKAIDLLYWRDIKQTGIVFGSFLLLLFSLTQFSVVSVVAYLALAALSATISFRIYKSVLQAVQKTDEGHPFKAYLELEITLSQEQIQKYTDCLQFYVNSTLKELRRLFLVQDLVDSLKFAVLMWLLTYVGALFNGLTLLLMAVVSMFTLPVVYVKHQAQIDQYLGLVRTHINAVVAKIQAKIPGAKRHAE
FLAG-HA-RTN1S (Q16799-3, form named): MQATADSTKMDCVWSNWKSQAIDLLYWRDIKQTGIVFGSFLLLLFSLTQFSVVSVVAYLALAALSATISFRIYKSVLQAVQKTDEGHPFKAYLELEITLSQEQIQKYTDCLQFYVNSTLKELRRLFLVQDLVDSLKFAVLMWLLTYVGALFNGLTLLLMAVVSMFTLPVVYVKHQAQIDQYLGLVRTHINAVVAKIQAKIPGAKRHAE
UniProt Q9NQC3: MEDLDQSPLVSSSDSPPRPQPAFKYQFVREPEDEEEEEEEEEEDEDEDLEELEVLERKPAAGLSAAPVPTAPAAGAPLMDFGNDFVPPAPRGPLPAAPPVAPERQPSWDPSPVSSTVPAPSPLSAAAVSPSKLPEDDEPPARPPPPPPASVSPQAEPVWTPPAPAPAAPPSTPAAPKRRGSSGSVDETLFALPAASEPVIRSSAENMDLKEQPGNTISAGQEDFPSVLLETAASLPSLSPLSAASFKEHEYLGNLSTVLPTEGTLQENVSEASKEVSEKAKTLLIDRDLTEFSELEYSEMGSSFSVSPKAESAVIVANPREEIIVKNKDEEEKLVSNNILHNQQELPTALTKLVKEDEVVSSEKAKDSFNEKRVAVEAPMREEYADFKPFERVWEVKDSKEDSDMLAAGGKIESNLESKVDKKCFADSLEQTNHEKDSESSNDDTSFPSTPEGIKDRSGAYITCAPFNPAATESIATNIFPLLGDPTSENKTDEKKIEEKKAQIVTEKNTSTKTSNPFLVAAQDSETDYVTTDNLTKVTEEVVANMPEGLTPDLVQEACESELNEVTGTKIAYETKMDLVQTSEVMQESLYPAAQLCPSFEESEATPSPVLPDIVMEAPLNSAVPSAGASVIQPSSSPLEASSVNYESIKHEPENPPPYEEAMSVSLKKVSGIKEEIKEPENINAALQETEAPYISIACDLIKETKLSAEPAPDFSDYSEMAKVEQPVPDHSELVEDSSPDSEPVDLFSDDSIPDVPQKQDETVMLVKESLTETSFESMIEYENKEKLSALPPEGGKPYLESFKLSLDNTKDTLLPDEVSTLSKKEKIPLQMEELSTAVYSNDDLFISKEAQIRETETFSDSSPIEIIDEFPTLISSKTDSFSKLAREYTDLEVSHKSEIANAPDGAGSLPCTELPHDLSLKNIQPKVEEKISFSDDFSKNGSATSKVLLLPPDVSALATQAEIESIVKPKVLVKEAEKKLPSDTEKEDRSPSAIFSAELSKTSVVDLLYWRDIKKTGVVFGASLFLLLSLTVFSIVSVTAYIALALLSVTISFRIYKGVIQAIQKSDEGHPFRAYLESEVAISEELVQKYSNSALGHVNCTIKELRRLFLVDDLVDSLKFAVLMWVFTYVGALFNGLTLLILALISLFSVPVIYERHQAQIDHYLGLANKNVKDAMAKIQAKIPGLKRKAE
FLAG-HA-RTN4S (Q9NQC3-3, form named): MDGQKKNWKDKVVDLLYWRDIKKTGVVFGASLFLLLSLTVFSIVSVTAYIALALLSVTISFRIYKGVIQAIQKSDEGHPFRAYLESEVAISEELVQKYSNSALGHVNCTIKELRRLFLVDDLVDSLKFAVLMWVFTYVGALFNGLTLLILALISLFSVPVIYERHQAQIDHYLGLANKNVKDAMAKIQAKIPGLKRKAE
UniProt O95197: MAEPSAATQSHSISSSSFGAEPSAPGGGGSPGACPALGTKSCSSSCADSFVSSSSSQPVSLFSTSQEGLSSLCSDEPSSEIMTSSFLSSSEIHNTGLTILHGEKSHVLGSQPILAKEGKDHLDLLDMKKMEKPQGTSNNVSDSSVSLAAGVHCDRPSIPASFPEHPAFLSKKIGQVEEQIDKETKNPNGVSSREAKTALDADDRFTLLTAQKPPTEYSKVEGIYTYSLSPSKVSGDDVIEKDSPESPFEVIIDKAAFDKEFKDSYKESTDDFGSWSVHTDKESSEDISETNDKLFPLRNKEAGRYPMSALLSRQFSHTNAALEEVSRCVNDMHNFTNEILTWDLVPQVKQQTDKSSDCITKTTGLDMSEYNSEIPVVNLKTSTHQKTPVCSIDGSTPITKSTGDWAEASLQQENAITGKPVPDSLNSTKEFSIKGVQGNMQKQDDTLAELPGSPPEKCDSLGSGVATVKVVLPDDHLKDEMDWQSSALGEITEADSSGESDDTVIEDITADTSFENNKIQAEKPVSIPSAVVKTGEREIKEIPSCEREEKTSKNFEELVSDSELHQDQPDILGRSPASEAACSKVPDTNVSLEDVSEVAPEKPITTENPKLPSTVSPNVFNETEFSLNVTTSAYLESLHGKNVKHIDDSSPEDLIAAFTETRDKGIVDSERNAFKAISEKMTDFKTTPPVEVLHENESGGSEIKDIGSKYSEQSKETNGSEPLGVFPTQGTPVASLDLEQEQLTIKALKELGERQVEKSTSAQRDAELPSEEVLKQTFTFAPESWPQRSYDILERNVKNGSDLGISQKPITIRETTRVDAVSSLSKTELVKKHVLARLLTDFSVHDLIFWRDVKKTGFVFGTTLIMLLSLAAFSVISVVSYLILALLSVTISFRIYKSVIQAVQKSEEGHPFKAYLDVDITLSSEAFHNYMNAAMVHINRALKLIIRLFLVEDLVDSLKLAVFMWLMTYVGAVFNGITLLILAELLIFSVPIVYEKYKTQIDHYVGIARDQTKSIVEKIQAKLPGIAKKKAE
FLAG-HA-RTN3S (O95197-3, form named): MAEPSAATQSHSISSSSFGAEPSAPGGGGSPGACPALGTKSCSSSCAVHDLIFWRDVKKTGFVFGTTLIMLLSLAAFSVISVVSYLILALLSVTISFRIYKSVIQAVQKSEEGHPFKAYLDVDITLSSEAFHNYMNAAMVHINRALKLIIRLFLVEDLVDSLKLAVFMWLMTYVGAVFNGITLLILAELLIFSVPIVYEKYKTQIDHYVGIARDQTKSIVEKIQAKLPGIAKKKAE
UniProt Q9H6L5: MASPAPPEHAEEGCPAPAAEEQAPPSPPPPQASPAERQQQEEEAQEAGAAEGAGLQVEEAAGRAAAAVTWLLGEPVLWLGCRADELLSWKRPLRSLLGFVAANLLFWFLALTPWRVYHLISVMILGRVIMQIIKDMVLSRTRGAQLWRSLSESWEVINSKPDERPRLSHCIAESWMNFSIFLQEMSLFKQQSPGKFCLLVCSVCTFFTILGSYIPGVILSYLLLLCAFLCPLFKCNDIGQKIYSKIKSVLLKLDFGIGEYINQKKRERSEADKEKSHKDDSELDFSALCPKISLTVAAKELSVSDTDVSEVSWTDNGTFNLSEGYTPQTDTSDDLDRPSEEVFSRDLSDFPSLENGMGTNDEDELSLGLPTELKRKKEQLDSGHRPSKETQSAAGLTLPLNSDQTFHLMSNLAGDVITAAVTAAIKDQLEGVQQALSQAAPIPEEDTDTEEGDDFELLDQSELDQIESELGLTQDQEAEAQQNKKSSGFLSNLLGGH
UniProt O95166: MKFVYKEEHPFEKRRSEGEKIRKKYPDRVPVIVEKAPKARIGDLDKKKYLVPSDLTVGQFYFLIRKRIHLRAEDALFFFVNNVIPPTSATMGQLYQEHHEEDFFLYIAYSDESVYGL

T1: RTN2L (co-overexpressed in HEK293T) (human) (UniProt O75298)
T1 sequence: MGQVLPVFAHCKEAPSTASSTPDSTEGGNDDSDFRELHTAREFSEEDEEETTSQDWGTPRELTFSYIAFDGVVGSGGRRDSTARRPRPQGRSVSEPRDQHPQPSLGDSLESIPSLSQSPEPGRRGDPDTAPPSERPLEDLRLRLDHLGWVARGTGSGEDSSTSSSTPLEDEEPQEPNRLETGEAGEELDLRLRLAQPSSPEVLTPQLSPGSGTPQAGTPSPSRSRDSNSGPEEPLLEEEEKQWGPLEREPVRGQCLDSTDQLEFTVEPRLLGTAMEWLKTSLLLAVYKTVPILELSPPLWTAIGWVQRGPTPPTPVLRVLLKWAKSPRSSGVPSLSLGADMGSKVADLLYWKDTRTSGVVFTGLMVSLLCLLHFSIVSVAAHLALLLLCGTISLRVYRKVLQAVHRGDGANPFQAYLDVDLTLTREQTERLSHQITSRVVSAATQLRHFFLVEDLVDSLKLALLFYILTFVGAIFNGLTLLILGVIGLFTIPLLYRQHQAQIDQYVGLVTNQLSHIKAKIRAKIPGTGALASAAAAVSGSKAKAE

T2: FLAG-HA-RTN2L (human) (UniProt O75298)
T2 sequence: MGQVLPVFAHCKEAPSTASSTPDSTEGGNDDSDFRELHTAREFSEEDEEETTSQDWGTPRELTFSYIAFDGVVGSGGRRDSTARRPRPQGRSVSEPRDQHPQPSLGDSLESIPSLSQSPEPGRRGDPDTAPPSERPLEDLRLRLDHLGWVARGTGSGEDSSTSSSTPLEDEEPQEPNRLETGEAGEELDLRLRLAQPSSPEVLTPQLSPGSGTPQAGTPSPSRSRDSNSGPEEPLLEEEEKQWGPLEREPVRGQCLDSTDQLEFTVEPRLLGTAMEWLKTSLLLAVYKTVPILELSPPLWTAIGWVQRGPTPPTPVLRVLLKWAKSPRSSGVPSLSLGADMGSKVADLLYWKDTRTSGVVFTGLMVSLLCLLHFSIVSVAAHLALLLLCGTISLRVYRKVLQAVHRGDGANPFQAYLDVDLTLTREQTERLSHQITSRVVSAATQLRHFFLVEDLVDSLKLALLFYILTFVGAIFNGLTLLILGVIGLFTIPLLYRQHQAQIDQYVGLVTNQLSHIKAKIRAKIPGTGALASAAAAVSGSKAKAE

T3: FLAG-HA-RTN2S (human) (UniProt O75298)
T3 sequence: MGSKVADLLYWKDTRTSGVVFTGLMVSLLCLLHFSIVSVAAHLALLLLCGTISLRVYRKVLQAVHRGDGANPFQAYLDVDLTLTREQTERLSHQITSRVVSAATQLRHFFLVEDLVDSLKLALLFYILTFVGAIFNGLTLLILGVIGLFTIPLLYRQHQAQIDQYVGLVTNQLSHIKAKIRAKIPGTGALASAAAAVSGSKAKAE


What was measured:
[1] = molecular target: RTN1L (co-overexpressed in HEK293T) (human) (UniProt Q16799); experiment: co-IP; proteins co-overexpressed in HEK293T for 24 hr; IP with anti-HA-agarose (overnight) or GFP-TRAP beads (2 hr) at 4°C; 50 mM HEPES pH 7.5, 150 mM NaCl, 1% Triton X-100, 10% glycerol
[2] = molecular target: T1, RTN2L (co-overexpressed in HEK293T) (human); experiment: as above
[3] = molecular target: RTN4L (co-overexpressed in HEK293T) (human) (UniProt Q9NQC3); experiment: as above
FLAG-HA-RTN4S (human) = FLAG-HA-RTN4S (human) (UniProt Q9NQC3); experiment: co-IP; anti-HA-agarose IP of FLAG-HA-RTN isoforms from U2OS TRex stable lines (doxycycline 1 µg/ml 24 hr, bafilomycin A1 200 ng/ml 2 hr); 50 mM Tris/HCl pH 8, 120 mM NaCl, 1% NP40; overnight at 4°C; blot for endogenous GABARAP and GABARAP-L1
FLAG-HA-RTN2L (human) = molecular target: T2, FLAG-HA-RTN2L (human); experiment: as above
FLAG-HA-RTN2S (human) = molecular target: T3, FLAG-HA-RTN2S (human); experiment: as above
FLAG-HA-RTN4L (human) = FLAG-HA-RTN4L (human) (UniProt Q9NQC3); experiment: as above
FLAG-HA-RTN1S (human) = FLAG-HA-RTN1S (human) (UniProt Q16799); experiment: as above
FLAG-HA-RTN3S (human) = FLAG-HA-RTN3S (human) (UniProt O95197); experiment: as above
FLAG-HA-RTN1L (human) = FLAG-HA-RTN1L (human) (UniProt Q16799); experiment: as above
[4] = molecular target: endogenous RTN3 (human (endogenous in A549)) (UniProt O95197); experiment: co-IP; endogenous proteins; A549 lysate (bafilomycin A1 200 ng/ml 2 hr) with RTN3 antibody overnight at 4°C, then Protein A-Agarose; 50 mM Tris/HCl pH 8, 120 mM NaCl, 1% NP40
[5] = molecular target: FAM134B (co-overexpressed in HEK293T) (human) (UniProt Q9H6L5); experiment: co-IP; proteins co-overexpressed in HEK293T for 24 hr; IP with anti-HA-agarose (overnight) or GFP-TRAP beads (2 hr) at 4°C; 50 mM HEPES pH 7.5, 150 mM NaCl, 1% Triton X-100, 10% glycerol

Row | Molecule | binding [1] | binding [2] | binding [3] | other results
1 | RTN4S (co-overexpressed in HEK293T) (from UniProt Q9NQC3-3 1-199) | binds | binds | – | –
2 | RTN1S (co-overexpressed in HEK293T) (from UniProt Q16799-3 1-208) | – | binds | binds | –
3 | RTN3S (co-overexpressed in HEK293T) (from UniProt O95197-3 1-236) | binds | binds | binds | –
4 | GABARAP (endogenous) (from UniProt O95166 1-117) | – | – | – | binding (FLAG-HA-RTN4S (human)): no binding; binding (FLAG-HA-RTN2L (human)): no binding; binding (FLAG-HA-RTN2S (human)): no binding; binding (FLAG-HA-RTN4L (human)): no binding; binding (FLAG-HA-RTN1S (human)): no binding; binding (FLAG-HA-RTN3S (human)): no binding; binding (FLAG-HA-RTN1L (human)): no binding; binding [4]: binds
5 | RTN4L (co-overexpressed in HEK293T) (from UniProt Q9NQC3-1 1-1192) | binds | binds | – | –
6 | RTN1L (co-overexpressed in HEK293T) (from UniProt Q16799-1 1-776) | – | binds | binds | –
7 | RTN2L (co-overexpressed in HEK293T) (protein, UniProt O75298-1 1-545) MGQVLPVFAHCKEAPSTASSTPDSTEGGNDDSDFRELHTAREFSEEDEEETTSQDWGTPRELTFSYIAFDGVVGSGGRRDSTARRPRPQGRSVSEPRDQHPQPSLGDSLESIPSLSQSPEPGRRGDPDTAPPSERPLEDLRLRLDHLGWVARGTGSGEDSSTSSSTPLEDEEPQEPNRLETGEAGEELDLRLRLAQPSSPEVLTPQLSPGSGTPQAGTPSPSRSRDSNSGPEEPLLEEEEKQWGPLEREPVRGQCLDSTDQLEFTVEPRLLGTAMEWLKTSLLLAVYKTVPILELSPPLWTAIGWVQRGPTPPTPVLRVLLKWAKSPRSSGVPSLSLGADMGSKVADLLYWKDTRTSGVVFTGLMVSLLCLLHFSIVSVAAHLALLLLCGTISLRVYRKVLQAVHRGDGANPFQAYLDVDLTLTREQTERLSHQITSRVVSAATQLRHFFLVEDLVDSLKLALLFYILTFVGAIFNGLTLLILGVIGLFTIPLLYRQHQAQIDQYVGLVTNQLSHIKAKIRAKIPGTGALASAAAAVSGSKAKAE | binds | – | binds | binding [5]: binds
8 | RTN2S (co-overexpressed in HEK293T) (protein, UniProt O75298-3 1-205) MGSKVADLLYWKDTRTSGVVFTGLMVSLLCLLHFSIVSVAAHLALLLLCGTISLRVYRKVLQAVHRGDGANPFQAYLDVDLTLTREQTERLSHQITSRVVSAATQLRHFFLVEDLVDSLKLALLFYILTFVGAIFNGLTLLILGVIGLFTIPLLYRQHQAQIDQYVGLVTNQLSHIKAKIRAKIPGTGALASAAAAVSGSKAKAE | binds | – | binds | –
